# According to the RNAGym collection of RNA variant scans (doi:10.7554/elife.90254):
# The source gives no read counts; variants with many changes may rest on few reads.
# B1: LINE1-mini (parent)
# chain: GGCAGAGCUCAACACAGCGUGGCAAAGUGGCUGUGGCUAGACUGCC
# Variants of: B1
# Test: self-cleavage, relative activity (ratio to wild type); higher = more cleavage; in vitro, sequencing; the parent is a self-cleaving ribozyme
row,Variant,self-cleavage
1,A4C C13G A24C C37A,0.12
2,A16C G21A G29C,0.92
3,G17A U34C C45A,0.03
4,A12U A14U C15G A16C C18G G27A C37A,0.02
5,C10A A24C U32A C46G,0.01
6,A11G U28C C46G,0.01
7,G1U A24C G30A G35A G36A U38G,0.01
8,A6U A14U A24G G44U,0.03
9,C10A C13A G22U G27A C37A,0.01
10,G33U G35U G44C,0.02
11,A6U A14C C18G,0.11
12,U34G G36A C37A A39C,0.04
13,C18G C23U G36A C42G,0.02
14,C8U A14G C18A C23U G36A,0.09
15,G2A U9G C18U C46A,0.06
16,G2C G21A A24G U32C U34A,0.04
17,C10A G19U G36U C45A,0.01
18,C13G G17A A24U G33C,0.04
19,G2U C10G G21C G33U A39G,0.01
20,G2U C15U G36A C37A,0.01
21,G7A C10A G21U A26G,0.01
22,G5A A25C G30C C46A,0.03
23,G35U G36C C46A,0.04
24,C10A G22U C23G G33U,0.02

row,Variant,self-cleavage
1,C3G C13U C31G U34G,0.01
2,C37U A39G C46G,0.02
3,G1U A16G G21A G22C U32G,0.01
4,G7C G21C C45G,0.05
5,G27U G36C C37G G44C,0.01
6,C10A G17C G29A A41U,0.01
7,C8A C18G A41U,0.03
8,C3A U20C A24U,0.98
9,C13G A24C G36C,0.08
10,G5A G30A C31U G35U G44U,0.01
11,A4C C8U C23G,0.02
12,C23A A24U G27A C46G,2.02
13,A6C G7U A24U A26C G36C C37A,0.03
14,A12C G19U U38G A41C,0
15,C18A G35A A39G,0.04
16,G1C C3U A12G C37U C46U,0.07
17,G2U A6U G7C A24C C42U,0.05
18,G5U A41G C42A,0.14
19,C3A A6U C8A G19C,0.36
20,C18U G21C C23G,0.27
21,A24U A39C C42U C45U,0.04
22,A26U G30A C31G U34A,0.01
23,C3U A14C A39U G40A,0.94
24,G19C G22U C45G C46A,0.07

row,Variant,self-cleavage
1,G2A G5A G40U,0.45
2,G5A A6U C37U G40A,0.03
3,C3G C13U G35U C46G,0.04
4,A25C A26C G27U C46A,0.87
5,A14C A16C A24U U43G,0.26
6,A4U G33U A39C,0.04
7,G19C A26G C46U,0.93
8,G2C G21U U34C,0.09
9,A6G U9A U34G,0.03
10,C10U A11G A12U C23A U34C,0
11,C13U C18A G30U C31A G33C,0.03
12,G1C A6G C10U U28C U32C,0.01
13,G5C A25U C31A,0.02
14,G5U A14C C31G,0.03
15,C10U G19A C37G,0.01
16,C10A U20A A24G,0.01
17,U9A A12U A16U G19A C31A G36A,0
18,U9G C18G U32A,0.02
19,C10G A16G U38C C42U,0
20,G1U C3U U9A C13U G17U G29A U32G,0.23
21,G17U G30A C31A U32C G35A C45A C46U,0.01
22,C10G G27U U28G G35C C46U,0.01
23,G2C U20C G21A U32A,0.03
24,G5U C10A A25G C37A,0.03

row,Variant,self-cleavage
1,C18A G29U U38G,0.04
2,G21U A25C U34C G40U C42A,0.03
3,G5C U20C U38C G40A,0.04
4,G5A G7A G22C,0.18
5,G21A A25G G35U,0.06
6,C8U C18G U32C G36C G40C,0.04
7,G35U A39C G44U,0.01
8,U9A C15A A26U,0.2
9,G2A A4G A24C G27U C31A U38A,0.71
10,C8A A14U A16U G35C A39C G44C C46A,0.08
11,G5A C8A C10G C31G,0.04
12,G7U G21C U28C,0.03
13,A11G C15G G30A,0.01
14,U9C C23G C31A,0.01
15,G1C C23U A25U G33A G35C A39C,0
16,C10A A25U U38A C42G C45U,0.02
17,C18U G27A G35U G40C,0
18,A11U C31G U34C A41G C42G,0
19,G1A A16C G36U,0.06
20,C37U U38C A39U G44C,0.03
21,C10A C23U A39G G40C C45A,0.01
22,G2A C31U A41C,0.05
23,G29A U34G G35C,0.04
24,G1U A25G A26U,0.01

row,Variant,self-cleavage
1,C3G U20G G30C,0.23
2,G5U C8G U9C A12U A14C G36U,0.02
3,G2C U9C G29A,0
4,G7A C18G C42U,0.13
5,A26C C37G G40C,0.22
6,A6G C18G C31U A41C,0
7,C3U C15U G17C C42A U43A,0.07
8,G7C A26C A41U,0.12
9,A4C U20C C23U C31A C46U,0.06
10,A16G U28A G33U C46A,0.02
11,C15A U20C C31G C42U,0.05
12,C18G G22C C31A G40C C45A,0.01
13,A6U G7C A16C G22A G30C,0.04
14,G2U C15A G17C G22U G33U,0.01
15,G2C C10A C13A,0.01
16,A16G G27U U28A U38G,0.05
17,G2C G7U C37U,0.09
18,A6U U9G A25G U34A A41U G44U C45G,0.22
19,G5A A6C C13A G19A G22U,0.14
20,C3U A11C A24G G33A U43A C45U,0.02
21,C18A C23A G35C A39U,0
22,C3A U20C G21A G33C U38G C46A,0.01
23,G7U A11G A39U,0
24,C13A C15U C23A,0.17

row,Variant,self-cleavage
1,G1C A16U G19C,0.04
2,G2U C10A A26U U28G C37A,0.01
3,C3G C13G G27U C45A,0.12
4,G19A C37U G40C,0.06
5,G5C A6U U34G,0.05
6,U9C C10U A12G G22C A26U,0
7,G2C A4U G21C G29A,0.05
8,A14U U38C C42G,0.01
9,A11C C18U A26C,0.01
10,A4C C15A C23G,0.27
11,G5A C10A A11C U20A G21C G36C,0.01
12,A6C U20G U32A A39U G40A,0.07
13,U9C A12U G19U U38C,0.01
14,C3U G7A C46A,0.4
15,C3A G27A G30A,0.98
16,C3U A14C A41G,0.02
17,A11C A25C G27U U28C,0.04
18,G2C C13A G29U,0.07
19,G2C A4C G19U,0.02
20,C15G A26C U32A G35A,0.05
21,G17U G36U U38A G44U,0.27
22,G1C U28C G35A,0.02
23,G2C G5A C8U C46G,0.24
24,A25C A39G G44C,0.01

row,Variant,self-cleavage
1,U9G A12U G35A G40A,0.03
2,A6U C8A A12G G19A,0.05
3,G1C A11C G44U,0.05
4,G5C G22U C37U,0.02
5,A4C A25U C31A,0.02
6,C10A A14G G17A C45U,0.03
7,G21A G35U C45U,0.12
8,G2A A6C A12C G17U G29A,0.02
9,G2C A4G G17U G21C U28A C45A,0.13
10,C8U C15U G29A U32G G33C G40A,0.27
11,C8U A11U A26U U34A G36U,0.03
12,G1U A24G G36U U43A,0.01
13,G7C G22U G30A,0.06
14,G7U C8A G44U,0.36
15,A24G A26C A41G,0.15
16,C3A G7C C31G A39C,0.06
17,U20G G22A G36C G44U,0.05
18,C3A A4G A26G,0.05
19,G5C G30U U34A G36C,0.05
20,G29U U32C G35C,0.01
21,C10A C13U G33U C42G,0.02
22,A26C G33C G44C,0.03
23,C15G U34C C42G,0.02
